# Publication PMC4336329 (PLoS ONE, 2015)
# In all, about 310,000 compounds went through this assay and about 2,200 (0.71%) showed an effect of 50% or more. Effects have a minus sign here. The list shows a part of the results.
# Target: human ether-à-go-go-related gene (hERG) potassium channel (human, UniProt Q12809)
# Assay: primary screen, population patch clamp on CHO cells stably expressing hERG
# Chain of human ether-à-go-go-related gene (hERG) potassium channel (Q12809 whole entry, looked up): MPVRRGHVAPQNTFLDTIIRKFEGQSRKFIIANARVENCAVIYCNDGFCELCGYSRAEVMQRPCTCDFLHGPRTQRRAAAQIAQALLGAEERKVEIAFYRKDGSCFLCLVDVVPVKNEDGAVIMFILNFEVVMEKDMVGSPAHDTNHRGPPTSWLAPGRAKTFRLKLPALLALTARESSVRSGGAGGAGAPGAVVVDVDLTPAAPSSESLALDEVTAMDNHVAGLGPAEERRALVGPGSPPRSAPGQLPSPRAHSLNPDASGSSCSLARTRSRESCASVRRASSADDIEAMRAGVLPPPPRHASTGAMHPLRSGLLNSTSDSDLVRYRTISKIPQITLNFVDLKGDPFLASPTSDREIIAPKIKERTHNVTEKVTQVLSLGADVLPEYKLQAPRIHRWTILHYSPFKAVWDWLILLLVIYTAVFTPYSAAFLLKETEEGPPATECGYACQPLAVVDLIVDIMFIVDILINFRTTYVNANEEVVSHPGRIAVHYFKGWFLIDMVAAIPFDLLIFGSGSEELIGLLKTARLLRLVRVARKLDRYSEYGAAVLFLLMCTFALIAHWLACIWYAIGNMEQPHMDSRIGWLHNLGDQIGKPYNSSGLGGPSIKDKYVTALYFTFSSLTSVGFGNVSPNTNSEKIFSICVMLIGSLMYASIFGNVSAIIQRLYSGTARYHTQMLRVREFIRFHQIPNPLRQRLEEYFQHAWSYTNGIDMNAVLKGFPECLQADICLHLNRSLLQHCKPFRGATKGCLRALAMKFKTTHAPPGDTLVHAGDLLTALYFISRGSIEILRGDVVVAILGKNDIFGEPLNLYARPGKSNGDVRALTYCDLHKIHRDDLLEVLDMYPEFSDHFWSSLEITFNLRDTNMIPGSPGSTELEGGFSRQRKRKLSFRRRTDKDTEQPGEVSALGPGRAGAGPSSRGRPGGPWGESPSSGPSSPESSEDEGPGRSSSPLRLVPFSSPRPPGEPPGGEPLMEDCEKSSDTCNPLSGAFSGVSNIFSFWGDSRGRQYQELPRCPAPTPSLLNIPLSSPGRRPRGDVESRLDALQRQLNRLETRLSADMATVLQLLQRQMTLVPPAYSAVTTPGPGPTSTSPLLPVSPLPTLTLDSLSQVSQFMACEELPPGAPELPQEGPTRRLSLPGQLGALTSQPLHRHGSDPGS
row,Compound,"hERG current change (%, negative = inhibition) at 1uM [%]"
1,Cc1cc(C)c(S(=O)(=O)Nc2ccccc2C(=O)N2CCCC2)c(C)c1,9.97
2,COCC(=O)NC1CCN(CC(=O)Nc2ccc(OC)cc2[N+](=O)[O-])CC1,8.93
3,COc1ccc(C(=O)NNC(=O)CSc2nnc(COc3ccccc3OC)n2C)cc1,11.9
4,CN(CCCC(=O)Nc1ccccc1)S(=O)(=O)c1ccc(Cl)cc1,-10.3
5,CSc1nc(N)c(N=Nc2ccc([As](=O)(O)O)cc2)c(=O)[nH]1,6.7
6,Cc1cc2n(n1)C(c1c[nH]c3ccccc13)Nc1ccccc1-2 (stereo not shown),10.5
7,Cn1nnc(NC(=O)c2ccco2)n1,5.17
8,CN(C)S(=O)(=O)c1cc(S(=O)(=O)N(C)C)c(Cl)cc1N,4.44
9,CCN(CC)CCNC(=O)Cn1nc(Cc2ccccc2)c2ccccc2c1=O,-25.1
10,COCCNc1nc2c(c(=O)n(C)c(=O)n2C)n1Cc1cccc(C(F)(F)F)c1,-6.46
11,COc1cc([N+](=O)[O-])cc(CN2CCCCC2)c1O,-1.98
12,O=C(CN1CCN(S(=O)(=O)c2ccc(F)cc2)CC1)Nc1ccc(Cl)c(C(F)(F)F)c1,9
13,CC1CC(C)CN(c2oc(-c3ccccc3Cl)nc2C#N)C1 (stereo not shown),11.6
14,CC(=O)NCCC(=O)Nc1cc(S(=O)(=O)N2CCCCC2)ccc1N1CCCCC1,12.6
15,O=C(COc1ccccc1N1C(=O)c2ccccc2C1=O)c1ccc(Cl)cc1,-4.06
16,O=C(CN(C(=O)CSc1nnc(COc2ccccc2)o1)c1ccc(F)cc1)NC1CCCC1,13.2
17,CCOC(=O)N1CCN(S(=O)(=O)c2ccc(C(=O)Nc3ccc(F)cc3F)cc2)CC1,4.52
18,Cc1ccc(S(=O)(=O)N2CCN(C(=O)CNC(=O)c3sc4ccccc4c3Cl)CC2)cc1,3.85
19,CCCCOc1ccc(-c2nnn(CC(=O)NCc3ccco3)n2)cc1,17.1
20,O=C(Nc1ccn(Cc2ccccc2F)n1)c1ccc(COc2ccccc2Cl)cc1,-3.81
21,COc1cc(/C(C)=N/NC(=S)NC(C)C)cc(OC)c1OC,7.45
22,O=C(NCCc1c[nH]c2ccccc12)c1cccnc1,18.2
23,Cc1ccc(OCC2Cn3c(nc4c3c(=O)[nH]c(=O)n4C)O2)cc1 (stereo not shown),-2.88

row,Compound,"hERG current change (%, negative = inhibition) at 1uM [%]"
1,CC(C)(C)C(=O)N1CCN(c2ccc(NC(=O)c3ccc4c(c3)OCCO4)cc2)CC1,14.9
2,O=C1/C(=C/c2ccco2)N=C(N2CCCCC2)N1c1ccccc1,9.07
3,COc1ccc(NC(=O)COc2ccc(CNCCCN3CCOCC3)cc2OC)cc1.Cl,2.09
4,C=CCN(c1ccccc1OC)S(=O)(=O)c1cccc(C(=O)Nc2nnc(C3CC3)s2)c1,5.37
5,CN(C)C1(CNC(=O)c2ccc(NS(=O)(=O)c3ccc(Cl)c(Cl)c3)cc2)CCCCC1,-50.9
6,N=C1c2ccccc2CN1c1cccc([N+](=O)[O-])c1,3.5
7,CCNC(=O)CN(c1ccc(C)cc1)S(=O)(=O)c1ccc(SC)cc1,-2.13
8,COCc1cc(=O)[nH]c2cc(NC(=O)C3CC3)c(C)cc12,14.1
9,Nc1cncc(C(=O)O)c1 [26671297],8.02
10,Cc1nc(C(=O)Nc2cc(F)cc(Cl)c2)sc1C1(C)CC(c2ccccc2)=NO1 (stereo not shown),6.67
11,Fc1cccc(C2CCCCN2Cc2nc(C3CC3)no2)c1 (stereo not shown),8.25
12,Cc1nnc(SCC(=O)Nc2sccc2C(N)=O)s1,0.842
13,O=C(CSc1nnc(Nc2ccccc2F)s1)NC(=O)CN1CCCC1=O,6.01
14,OC(CN1CCc2ccccc2C1)c1ccccc1 (stereo not shown),3.23
15,COc1ccc2c(CC#N)c[nH]c2c1,9.42
16,COc1ccc2c(c1OC)C(=O)N1N=C(c3ccc(F)cc3)CC21 (stereo not shown),2.15
17,COc1ccc(/C=C2/C(=O)C(C)(C(C)C)CCC2C)cc1 (stereo not shown),5.61
18,COc1ccc(-c2cc(-c3ccc(Cl)cc3)n[nH]2)c(O)c1,17.1
19,c1ccc2c(c1)Cc1cc3ccccc3nc1-2,12.6
20,C=CCNC(=O)c1ccc2c(=O)n(CCCN3CCCC3=O)c(=S)[nH]c2c1,4.18
21,CCOC(=O)c1ccc2c(c1)N(CC#N)C(=O)C(C)(C)O2,-1.45
22,COc1cc(C2C3=C(Nc4nc(N)[nH]c(=O)c42)c2ccccc2C3=O)ccc1O (stereo not shown),12
23,COC(=O)C(C)N(C(=O)c1cccc2ccccc12)c1c(C)cccc1C (stereo not shown),2.83

row,Compound,"hERG current change (%, negative = inhibition) at 1uM [%]"
1,Cc1ccc(NC(=S)N2CCCN(Cc3ccc(F)cc3)C2)c(C)c1,-1.42
2,Nc1ccc2nc(-c3ccccc3)cnc2c1,6.27
3,Cc1cccc(NC(=O)c2ccc(OCc3c(C)noc3C)cc2)n1,-1.53
4,CCOC(=O)C1CCN(C(=O)CSc2ccccc2)CC1,-5.23
5,Cc1cccc(/N=C/c2sc3ccccc3c2O)n1,11.4
6,CCOc1cc(/C=C2/NC(=O)N(CC(=O)OC)C2=O)ccc1OC,6.2
7,COCc1cc(=O)[nH]c2cc(NC(=O)C(C)(C)CCl)c(C)cc12,12.4
8,Cc1ccc(C(c2sc3ncnn3c2O)N2CCC(C)CC2)cc1 (stereo not shown),10.4
9,COCCCNC(=O)CN(Cc1ccccc1)S(=O)(=O)c1ccccc1,7.33
10,Cc1c(NC(=O)C(C)N2CC(C)OC(C)C2)c(=O)n(-c2ccccc2)n1C (stereo not shown),18.9
11,COc1ccc(-n2nnc3c(SCC(=O)c4ccccc4)ncnc32)cc1,5.34
12,CCOC(=O)N1CCN(Cc2nc3cc(NC(=O)CC)ccc3n2CC)CC1,14.9
13,COCCCNCCOCCOc1ccc(C)cc1[N+](=O)[O-].O=C(O)C(=O)O,-14.5
14,Cc1nc2cnccc2n1C,13.5
15,CSc1nc2n(n1)C(c1cccs1)C1=C(CCCC1=O)N2 (stereo not shown),6.41
16,CC(=O)Nc1ccc2c(c1)nc(CN1CCCC1)n2C,-2.87
17,COc1cccc(NC(=O)CSc2nc3ccccc3nc2N2CCOCC2)c1,8.17
18,CC(=O)C1C(c2ccc(O)cc2)NC(=O)NC1(O)C(F)(F)F (stereo not shown),4.52
19,COc1ccccc1N1CCN(C(=O)c2ccc3nc[nH]c3c2)CC1,9.21
20,Cc1cc(SCC(=O)OCC(=O)N(CCC#N)c2ccccc2)nc2ccccc12,-13
21,CN(C(=O)COc1cc(=O)n(C)c2ccccc12)c1ccc(Cl)cc1,-23.6
22,CCOC(=O)c1sc2nc(CN3CCCCC3)nc(Cl)c2c1C,3.19
23,CCc1ccc(C2C(C(C)=O)=C(C(=O)OC)Nc3nnnn32)cc1 (stereo not shown),6.79

row,Compound,"hERG current change (%, negative = inhibition) at 1uM [%]"
1,CCOC(=O)CC1C(=O)NCCN1Cc1ccc(OC)c(OC)c1 (stereo not shown),14.2
2,O=[N+]([O-])c1cccc2ccc(/C=C/c3ccc(F)cc3)nc12,-1.42
3,COc1cc(/C=N/n2c(-c3ccccc3)n[nH]c2=S)ccc1O,9.71
4,COC(=O)c1ccc(/C=C/c2c(-c3ccc(OC)cc3)oc3ccccc23)cc1,8.54
5,CNC(C)Cc1ccccc1Sc1ccc(O)cc1.Cl (stereo not shown),-21.1
6,Cn1c(SCC(=O)c2c(N)n(C)c(=O)n(C)c2=O)nnc1-c1ccc(F)cc1,13.5
7,CCCCC(=O)OCc1c(-c2ccccc2)ncc2ccccc12,11.4
8,Cc1ccc(C(=O)NCC2CCCN2S(=O)(=O)c2ccc(C)cc2)cc1 (stereo not shown),3.74
9,CCC1S/C(=N\S(=O)(=O)c2cccs2)N(C2CCCCC2)C1=O (stereo not shown),12.1
10,COc1ccc(NC(=O)COC(=O)c2n[nH]c3ccccc23)c(OC)c1,13.5
11,Br.N#Cc1ccc(CSC2=NCCN2)cc1,5.51
12,Cc1nn(Cc2ccccc2)c(C)c1C(=O)OCC(=O)NCc1ccco1,-7.85
13,Cn1c(=O)c(=O)n(C)c2cc([N+](=O)[O-])c(N3CCOCC3)cc21,8.95
14,Cc1ccnc(NC(=O)CS(=O)(=O)c2ccccc2)c1,7.52
15,Cc1ccc(S(=O)(=O)NNC(=O)C2CCCCC2)cc1,12.5
16,COC(=O)COc1ccc(-n2cnnn2)cc1,17.7
17,CC(=O)Nc1ccc(S(=O)(=O)NCC2CCC(C(=O)NC(C)c3ccccc3)CC2)cc1 (stereo not shown),11.7
18,COC1=CC(=O)CC(C)C12Oc1cc(OC)cc(OC)c1C2=O (stereo not shown),6.8
19,Cc1cccc(S(=O)(=O)C(C#N)c2nc3ccccc3nc2N2CCCC2)c1 (stereo not shown),-12.6
20,Cc1cc(C)c2c(n1)SCC(=O)N2CC(=O)Nc1cc(F)ccc1F,3.81
21,CC1CCN(c2nc(-c3ccccc3)cc(C(F)(F)F)n2)CC1,2.64
22,C/C(=N\NC(=O)C1CC1)c1ccc(Cl)cc1,12.7
